IC50 is the fitted dose that halves viability relative to control wells, and lower means more sensitive; fits outside the tested doses are given as limits. For AUC the same curve is integrated over the 256-fold range of doses and scaled to a fraction: 1 means no effect, lower means more sensitive. For some of these results: The top dose, if marked as inferred, was derived from the fitted curves, not read from the paper.
Key:
Assay in all cases: Viability of human cancer cell lines after 72 h of drug (GDSC screen)
[1] = compound: CCNC(=O)C[C@@H]1N=C(c2ccc(Cl)cc2)c2cc(OC)ccc2-n2c(C)nnc21 [I-BET-762]; settings: top dose 20 µM; top dose inferred
Protocol: (§1)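 Human cancer cell lines in 384-well plates, medium with 10% serum, drug for 72 h over a 256-fold dose range (nine 2-fold or five 4-fold steps up to the top dose). Adherent lines were fixed and stained with the nucleic acid dye Syto60, suspension lines read with resazurin; signal relative to control wells, capped at 0 and 100%. One two-parameter sigmoid per drug and line, fitted in a mixed model over all curves with the slope shared within a line.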

[2] = compound: CCc1cncnc1N1CCN(Cc2nc3ccc(C(F)(F)F)cc3[nH]2)CC1 [PF-4708671]; settings: top dose 10 µM; top dose inferred
Protocol: as §1

[3] = compound: COc1cc2nccc(Oc3ccc(NC(=O)Nc4cc(C)on4)c(Cl)c3)c2cc1OC [AV-951]; settings: top dose 0.128 µM; top dose inferred
Protocol: as §1

[4] = compound: O=C(NC(COc1ccc2[nH]c(=O)[nH]c2c1)c1ccccc1)c1cccn(Cc2ccc(F)c(F)c2)c1=O [KIN001-244]; settings: top dose 20 µM; top dose inferred
Protocol: as §1

[5] = compound: CC(=O)Nc1cccc(-n2c(=O)n(C3CC3)c(=O)c3c(Nc4ccc(I)cc4F)n(C)c(=O)c(C)c32)c1 [Trametinib]; settings: top dose 1 µM
Protocol: as §1

[6] = compound: CCN1CCN(Cc2ccc(NC(=O)c3ccc(C)c(/C=C/c4cnc5[nH]ccc5c4OC)c3)cc2C(F)(F)F)CC1 [HG-6-64-1]; settings: top dose 5.12 µM; top dose inferred
Protocol: as §1

Cell Line	AUC [1]	IC50 [1] [µM]	AUC [2]	IC50 [2] [µM]	AUC [3]	IC50 [3] [µM]	AUC [4]	IC50 [4] [µM]	AUC [5]	IC50 [5] [µM]	AUC [6]	IC50 [6] [µM]
A375 (melanoma, adherent)	0.96	> 20	0.985	> 10	0.991	> 0.128	0.893	16.3	0.033	< 0.00391	–	–
A704 (kidney, adherent)	–	–	–	–	0.988	> 0.128	0.94	> 20	0.868	0.868	0.712	1.25
CADO-ES1 (Ewing sarcoma, suspension)	0.9	> 20	0.915	> 10	0.971	> 0.128	0.79	9.11	0.981	> 1	–	–
COR-L321 (lung, suspension)	0.886	> 20	0.929	> 10	0.983	> 0.128	0.894	> 20	0.988	> 1	–	–
D-423MG (glioma, adherent)	0.863	> 20	0.883	> 10	0.976	> 0.128	0.713	5.8	0.887	> 1	–	–
D-566MG (glioma, adherent)	0.879	> 20	0.889	> 10	0.975	> 0.128	0.87	18.1	0.576	0.101	–	–
DOV13 (ovary, adherent)	0.982	> 20	0.932	> 10	0.983	> 0.128	0.829	15.1	0.711	0.273	–	–
EMC-BAC-1 (lung adenocarcinoma, adherent)	0.864	> 20	0.959	> 10	0.954	> 0.128	0.926	> 20	0.509	0.0664	–	–
EMC-BAC-2 (lung adenocarcinoma, adherent)	0.842	18	0.958	> 10	0.972	> 0.128	0.89	> 20	0.568	0.0991	–	–
ESO26 (oesophagus, adherent)	0.669	3.58	0.989	> 10	0.983	> 0.128	0.698	4.33	0.978	> 1	–	–
ESO51 (oesophagus, semi-adherent)	0.694	5.54	–	–	0.972	> 0.128	0.873	> 20	0.705	0.302	–	–
FLO-1 (oesophagus, adherent)	0.951	> 20	0.898	> 10	0.965	> 0.128	0.792	13.9	0.645	0.19	–	–
H290 (mesothelioma, adherent)	–	–	–	–	0.968	> 0.128	–	–	0.333	0.0224	0.774	1.83
HCC202 (breast, adherent)	0.836	> 20	0.944	> 10	–	–	0.867	> 20	0.966	> 1	–	–
HCC1143 (breast, adherent)	0.975	> 20	0.979	> 10	0.966	> 0.128	0.911	> 20	0.522	0.0736	–	–
HMV-II (melanoma, adherent)	0.959	> 20	0.968	> 10	0.978	> 0.128	0.814	14	0.112	< 0.00391	–	–
HT-3 (cervix, adherent)	0.88	> 20	0.971	> 10	0.983	> 0.128	0.936	> 20	0.628	0.142	–	–
Hey (ovary, adherent)	0.92	> 20	0.935	> 10	0.984	> 0.128	0.887	> 20	0.164	0.00642	–	–
JHOS-2 (ovary, adherent)	0.962	> 20	0.962	> 10	0.983	> 0.128	0.81	12.7	0.249	0.0104	–	–
JHOS-3 (ovary, adherent)	0.944	> 20	0.972	> 10	0.983	> 0.128	0.942	> 20	0.417	0.0348	–	–
JHU-029 (head and neck, adherent)	–	–	0.968	> 10	–	–	–	–	0.389	0.0289	0.623	0.759
KMS-11 (myeloma, suspension)	–	–	0.962	> 10	0.988	> 0.128	0.852	12.1	0.97	> 1	–	–
KP-1N (pancreas, adherent)	–	–	0.986	> 10	–	–	–	–	0.849	0.802	0.86	4.61
KYAE-1 (oesophagus, suspension)	0.921	> 20	0.895	> 10	0.974	> 0.128	0.652	3.45	0.897	> 1	–	–
NCC021 (kidney, adherent)	0.96	> 20	0.985	> 10	0.983	> 0.128	0.829	15.3	0.823	0.72	–	–
OACM5-1 (oesophagus, semi-adherent)	0.653	3.52	0.97	> 10	0.941	> 0.128	0.521	1.43	0.985	> 1	–	–
OACp4C (oesophagus, adherent)	0.777	9.74	0.968	> 10	0.98	> 0.128	0.72	6.02	0.386	0.0284	–	–

From the supplement of paper PMC4967469
